Results published in article PMC3114464 (Biochemistry, 2011).

Target: T1, IsdA-N1 (NEAT domain of IsdA), apo form (S. aureus, UniProt Q7A655 62-184)
T1 sequence (looked up): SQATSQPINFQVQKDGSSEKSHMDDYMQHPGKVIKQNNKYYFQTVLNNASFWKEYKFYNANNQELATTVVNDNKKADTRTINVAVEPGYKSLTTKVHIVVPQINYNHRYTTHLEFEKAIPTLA
Assay: stopped-flow spectroscopy of heme transfer

B1: IsdB-N2 (second, heme binding, C-terminal NEAT domain of IsdB), wild type (domain or fragment)
chain: not shown
B1 showed a Kd of 18.6 µM.
